{"source": "PubChem BioAssay (NCI)", "note": "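In this assay, cells in 96-well plates receive the compound at five concentrations for 48 hours. Endpoints are linearly interpolated between the surrounding concentrations. Abbreviation: GI50, concentration required for 50% inhibition of growth. Definition used: TGI = concentration required for complete inhibition of growth.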", "data": [{"test_system": "NCI-H322M lung", "assay": "DTP human tumour cell line panel, 48 h", "units": {"GI50": "µM", "TGI": "µM"}, "values": [{"smiles": "C/C(=N\\NC(=S)Nc1ccc(Br)cc1)c1cc2ccccc2oc1=O", "GI50": 1.39, "TGI": 27.4}, {"smiles": "O=C1NC(=O)c2c1c1c3ccccc3ccc1c1[nH]c3ccccc3c21", "GI50": 0.539, "TGI": "> 100"}, {"smiles": "CCOc1ccc(-c2nnc(C3CC(NC(=O)c4cccc5nccnc45)C3)n2-c2ccccc2F)nc1", "note": "(stereo unspecified)", "GI50": 26.5, "TGI": "> 100"}]}]}
